Data published in patent US20240190978A1 (CSBIOASSET, published 2024).

Legend:
[1] = biological target: T1, human IL6R-Avi-tag (human, UniProt P08887 20-365, limits assumed); experiment: SPR (Biacore 8K, 25 °C), hIL6R immobilized, 1:1 binding model
T1 construct: Immobilized on NA-coated CM5 chips at about 20 RU; also called immobilized human IL6R; not shown: Avi-tag
T1 sequence (looked up): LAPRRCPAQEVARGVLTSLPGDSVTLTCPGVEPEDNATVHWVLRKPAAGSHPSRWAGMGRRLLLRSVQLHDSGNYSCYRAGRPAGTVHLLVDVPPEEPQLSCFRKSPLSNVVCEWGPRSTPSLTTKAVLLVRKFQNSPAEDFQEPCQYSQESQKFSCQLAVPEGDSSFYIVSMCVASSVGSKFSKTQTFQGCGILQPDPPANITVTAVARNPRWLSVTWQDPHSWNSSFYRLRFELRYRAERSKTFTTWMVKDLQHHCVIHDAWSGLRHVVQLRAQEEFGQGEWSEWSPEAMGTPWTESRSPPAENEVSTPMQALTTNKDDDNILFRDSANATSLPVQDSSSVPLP
Protocol: (§1) To evaluate binding of the bispecific binding proteins disclosed herein, surface plasmon resonance (SPR) studies were performed on a Biacore 8k instrument (GE Healthcare) at 25° C. The binding of the protein analytes was tested in buffer: 10 mM HEPES, 150 mM NaCl, 3 mM EDTA, 0.05% TWEEN20, pH7.4 on surfaces consisting of a low density (˜20RU) of human IL6R-Avi-tag or human CD80-Avi-tag which had been immobilized on NA-coated CM5 chips using standard protocol. The protein analytes were injected in a titration series at a flowrate of 50 ul/min. The data were analyzed using the Biacore Insight Evaluation software. 1:1 binding kinetic and affinity models are applied for experimental data analysis.

[2] = biological target: T2, human CD80-Avi-tag (human, UniProt P33681 35-242); experiment: SPR (Biacore 8K, 25 °C), hCD80 immobilized, 1:1 binding model
T2 construct: also called immobilized human CD80; not shown: Avi-tag
T2 sequence (looked up): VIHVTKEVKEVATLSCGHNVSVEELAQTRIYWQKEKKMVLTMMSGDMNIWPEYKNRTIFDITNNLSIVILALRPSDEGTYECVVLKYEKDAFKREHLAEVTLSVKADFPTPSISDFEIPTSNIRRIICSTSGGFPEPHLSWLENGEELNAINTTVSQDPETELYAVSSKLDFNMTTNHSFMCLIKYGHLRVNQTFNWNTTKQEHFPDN
Protocol: as §1

B1: α-IL6R/CTLA-4 bispecific protein (SEQ ID NO: 1 with SEQ ID NO: 3) (bispecific antibody, human IgG4 S228P, kappa)
heavy: QVQLQESGPGLVRPSQTLSLTCTVSGYSITSDHAWSWVRQPPGRGLEWIGYISYSGITTYNPSLKSRVTMLRDTSKNQFSLRLSSVTAADTAVYYCARSLARTTAMDYWGQGSLVTVSSASTKGPSVFPLAPCSRSTSESTAALGCLVKDYFPEPVTVSWNSGALTSGVHTFPAVLQSSGLYSLSSVVTVPSSSLGTKTYTCNVDHKPSNTKVDKRV[letters of human IgG4 Fc with S228P (EU numbers) left out]AGGGGSGGGGSGGGGSGGGGSMHVAQPAVVLASSRGIASFVCEYASPGKATEVRVTVLRQADSQVTEVCAATYMMGNELTFLDDSICTGTSSGNQVNLTIQGLRAMDTGLYICKVELMYPPPYYLGIGNGTQIYVIDPEPCPDSD
light: DIQMTQSPSSLSASVGDRVTITCRASQDISSYLNWYQQKPGKAPKLLIYYTSRLHSGVPSRFSGSGSGTDFTFTISSLQPEDIATYYCQQGNTLPYTFGQGTKVEIKRTVAAPSVFIFPPSDEQLKSGTASVVCLLNNFYPREAKVQWKVDNALQSGNSQESVTEQDSKDSTYSLSSTLTLSKADYEKHKVYACEVTHQGLSSPVTKSFNRGEC
notes: Bivalent for IL6R through the Fab arms and for CD80/CD86 through the C-terminal CTLA-4 ectodomain; also called Duotein-A; Duotein
Kd [1]: 0.107 nM | koff [1]: 7.64e-05 s⁻¹ | kon [1]: 713000 M⁻¹ s⁻¹ | Kd [2]: 154 nM | koff [2]: 0.12 s⁻¹ | kon [2]: 780000 M⁻¹ s⁻¹
